As usually defined, the TGI is the concentration at which net growth stops. A lower TGI goes with greater sensitivity of the cells. In general, GI50 refers to the concentration giving 50% growth inhibition.

Several values for one entry are separate records, joined by “and”; a condition that tells them apart may be missing. Equal entries are not always repeated.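 In this assay, cells in 96-well plates receive the compound at five concentrations for 48 hours. Endpoints are linearly interpolated between the surrounding concentrations. The concentration for 50% growth inhibition is given as GI50. TGI is the concentration that stops growth completely.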

Consider 86 compounds from PubChem BioAssay (NCI).

The subject of the experiment is NCI-H322M lung. The experiment in a line: DTP human tumour cell line panel, 48 h.
For `Cc1ccc(/C=C/C(=N/NC(=O)N/N=C(/C=C/c2ccc(C)cc2)C(C)(C)CN2CCCCC2)C(C)(C)CN2CCCCC2)cc1`, the TGI was found to be 4.23 µM.
As for `S=c1sc2nc(Cl)nc(Cl)c2s1`, the TGI was determined as 31.4 µM.
Turning to `CCC(C(=O)[O-])C(=O)[O-].CCC(C(=O)[O-])C(=O)[O-].N.N.NCCCCCCN.[Pt+4].[Pt+4]`, the GI50 is 20.1 µM and the TGI was 29.7 µM.
On to `[N-]=[N+]=NC(CBr)c1cn([C@H]2C[C@H](O)[C@@H](CO)O2)c(=O)[nH]c1=O` (stereo partly drawn), for which the TGI is > 100 µM.
Still for that read-out and setting: the same measure for `COc1cc2c(cc1OC)C(N)CC2=O` (stereo not drawn): > 100 µM.
Still for that read-out and setting: the same measure for `O=C(CCN1CCOCC1)Nc1ccc2sc3ccccc3c(=O)c2n1`: > 100 µM; for `CCOC(=O)/C=C1\c2ccccc2C(=O)N1CC(=O)OCC`: > 100 µM.
On the same count and under the same terms, the same measure for `COc1ccc(-c2cc(=O)c3c(O)cc(C)cc3o2)cc1OC`: > 100 µM; for `CSc1nc2[nH]c(=O)c(C)nc2c(=O)[nH]1`: > 100 µM; for `CN(C)c1n/c(=N/c2ncn[nH]2)ss1`: > 100 µM.
As to `O=C1CCc2c(sc3[nH]c(=S)n(Cc4ccccc4)c(=O)c23)C1`, the GI50 is 3.46 µM and the TGI was > 100 µM.
The matching figures for `Cc1cc(C)nc(SC2=C(Nc3cccc(Cl)c3C)C(=O)N(Cc3ccccc3)C2=O)n1`: > 160 µM and > 160 µM.
In the case of `O=C(O)C1(Cc2cccc(Nc3nccs3)n2)CCC(Oc2cccc(Cl)c2F)CC1` (stereo not drawn), the GI50 is 23.9 µM and the TGI turned out to be 64.2 µM.
As for `CC1(C)CC(=O)c2c(nc(SSc3nc4c(c(-c5ccccc5)c3C#N)C(=O)CC(C)(C)C4)c(C#N)c2-c2ccccc2)C1`, the TGI was > 10 µM.
Same read-out and setting: the same measure for `COC1=Nc2ccccc2S(=O)(=O)C=C1`: 37.7 µM.
Take `CC(=O)[O-].O=C([CH-]C(=O)c1ccccc1)c1ccccc1.O=C([CH-]C(=O)c1ccccc1)c1ccccc1.[Y+3]`: the GI50 was 7.56 µM and the TGI was determined as 27.8 µM.
On to `Cc1ccc(O)c(C(=O)CCCC(=O)c2cc(C)ccc2O)c1`, for which the TGI is > 100 µM.
On the same count and under the same terms, the same measure for `O=C1/C(=C/c2ccc(Cl)cc2)N=C(c2ccccc2)N1c1ccc(S(=O)(=O)Nc2nccs2)cc1`: > 100 µM; for `O=C1OCc2cccc3c2-c2c1cccc2C(=O)OC3`: > 100 µM; for `COc1ccc(C(=O)/C=C/c2ccc(OCC(=O)N3CCN(c4ccccc4)CC3)cc2)cc1`: > 100 µM.
Same read-out and setting: the same measure for `O=C(CC(=O)C1CCOC1=O)C(=O)Nc1ccc(Cl)cc1Cl` (stereo not drawn): > 100 µM; for `NCCN1CC2CCC(CC2)C1`: > 10 µM.
Take `C=CC(C)CCC(C/C=C(\C)CCC=C(C)C)C(=C)CCCC(C)C` (stereo not drawn): the TGI was > 100 µM.
For the compound `C/C(=C\c1ccc(Cl)c(Cl)c1)[N+](=O)[O-]`, the GI50 was 2.03 µM; the TGI is 4.21 µM and 34.7 µM.
In the case of `O=C(O)C12CCCC(CCC1)C2`, the TGI was > 100 µM.
Consider `COc1ccc2c(c1)[n+](=O)c(C(=O)/C=C/c1cc(OC)c(OC)c(OC)c1)c(C)n2[O-]`, for which the GI50 was 27.7 µM and the TGI was > 100 µM.
As to `COc1cccc2[nH]c(-c3ccccn3)nc12`, the TGI was > 100 µM.
In the case of `O=[N+]([O-])c1ccc2ncccc2c1Cl`, the GI50 was 7.68 µM and the TGI turned out to be 24.3 µM.
For the compound `CN1CCC23c4c5ccc(O)c4OC2c2[nH]c4ccccc4c2CC3(O)C1C5` (stereo not drawn), the TGI is > 100 µM.
The same measure, in the same setting: the same measure for `COC(=O)c1ccc(Cc2ccc(C(=O)OC)o2)o1`: > 378 µM.
Regarding `O=C([O-])c1ccc(C(=O)[O-])cc1.O=C([O-])c1ccc(C(=O)[O-])cc1.[Mo+2].[Mo+2]`, the GI50 is > 100 µM and the TGI was > 100 µM.
On to `C=C1C(=O)O[C@H]2[C@H]1CC/C(COC(=O)c1ccc(C#N)cc1)=C\CC[C@@]1(C)O[C@@H]21`, for which the GI50 was 4.34 µM and the TGI came out at 16.1 µM.
`COc1cc2c(cc1OCc1ccccc1)NC(=S)[C@@H]1CCCN1C2=S`: the TGI was > 100 µM.
Take `Cc1nc(N)sc1C(=O)Nc1cc(C(=O)NCCCN(C)C)n(C)c1`: the GI50 was > 100 µM and the TGI is > 100 µM.
With `Cc1nc(Nc2ccc([N+](=O)[O-])cc2)sc1C(/C=C/c1ccc(N(C)C)cc1)=N/NC(=O)c1ccccc1`, the TGI is > 100 µM.
On the same count and under the same terms, the same measure for `COc1ccc(/C=C2\N=C(NN)N=C2Cl)cc1`: > 100 µM.
As for `O=C(CCCCCCSc1nc(-c2ccc(Cl)cc2)cc(-c2ccc(Cl)cc2)n1)NO`, the GI50 was 1.61 µM and the TGI was > 50 µM.
With `C/C=C/C(=O)N1C(=O)OC[C@@H]1c1ccccc1`, the TGI came out at 32.6 µM.
Still for that read-out and setting: the same measure for `CCCCCC/C=C\CCCCCCCCCC1=CC(=O)C=C(OC)C1=O`: 25.5 µM; for `CN(CCCNC(=O)c1nn(-c2ccc(Cl)cc2Cl)c2c1ccc1ccccc12)CCCNC(=O)c1nn(-c2ccc(Cl)cc2Cl)c2c1ccc1ccccc12`: 3.12 µM.
For the compound `Cc1cc(NS(=O)(=O)c2ccc(Nc3c4ccccc4nc4ccc(C(=O)Nc5ccc(S(N)(=O)=O)cc5)cc34)cc2)no1`, the TGI was > 100 µM.
For the compound `CNCCCNc1nc2ccccc2c2c(=O)c3cc(Cl)ccc3sc12`, the GI50 was 1.52 µM and the TGI is 2.9 µM.
Taken in the same sequence, the figures for `CS(=O)(=O)CCNCc1ccc(-c2ccc3ncnc(Nc4ccc(OCc5ccccc5)c(Cl)c4)c3c2)o1` were 0.854 µM and > 25 µM.
As for `CN(C)C(=O)Oc1ccc(-c2cn3cc(NC(=O)c4ccccc4)ccc3n2)cc1`, the TGI was > 100 µM.
Still for that read-out and setting: the same measure for `Nc1nc(Cl)c2nnn(CC3CCC(CO)C3)c2n1` (stereo not drawn): > 100 µM.
As for `C[C@H]1C(Oc2ccc(O)cc2)OC2OC3(C)CCC4[C@H](C)CCC1C24OO3` (stereo partly drawn), the GI50 is 16.3 µM and the TGI is 31.1 µM.
Regarding `NC(=O)/C=C/NC(=O)/C=N\O`, the TGI was > 100 µM.
Regarding `COc1ccc(C2SC(C)C(=O)N2c2nc(-c3nc(-c4ccc(Cl)cc4)cs3)cs2)cc1` (stereo not drawn), the TGI is > 100 µM.
Same read-out and setting: the same measure for `O=C(c1ccc(Br)cc1)n1c2ccc(Br)cc2c2nc3ccccc3nc21`: > 100 µM; for `CC(C)(C)C(=O)O[C@@H]1COC2C(O)COC21` (stereo partly drawn): > 100 µM.
As to `N#CCCN(CCN(C(=O)Nc1ccccc1)c1ccccc1)C(=O)Nc1ccccc1`, the TGI was > 100 µM.
On the same count and under the same terms, the same measure for `COc1cc(/C=C/c2cc(/C=C/c3ccc(O)c(OC)c3)oc(=O)c2)ccc1O`: 20.6 µM.
On to `O=C1c2c(O)cc(O)cc2OC(c2ccc(O)cc2O)C1O` (stereo not drawn), for which the GI50 was > 100 µM and the total growth inhibition concentration (TGI) is > 100 µM.
Regarding `COCCOCC(=O)N(CCn1ccc(NC(c2ccccc2)(c2ccccc2)c2ccccc2)nc1=O)CCn1cnc2nc(N)[nH]c(=O)c21`, the TGI was > 100 µM.
Same read-out and setting: the same measure for `O=C(O)c1ccccc1/C=N/NC1=NCCCCN1`: > 100 µM; for `C=C1C(=O)O[C@H]2[C@H]1CC(=O)/C(C)=C/CC[C@@]1(C)O[C@@H]21`: 25 µM; for `CC(C)NCCC(O)c1cc2ccccc2o1` (stereo not drawn): > 100 µM.
Take `C=CC[C@@H]1C(=O)[C@@]2(O[Si](C(C)C)(C(C)C)C(C)C)CC[C@@H]1C[C@H]2NC(=O)OCC(Cl)(Cl)Cl`: the TGI is > 100 µM.
Take `CN(CCCl)c1ccc(/C=C/C2=[N+](C)c3ccccc3C2(C)C)cc1`: the GI50 is 1.11 µM and the TGI turned out to be 15.1 µM.
`CCCCC(=O)Oc1ccc2c(C)cc(=O)oc2c1`: the TGI is > 100 µM.
Take `O=C(O)Cn1c(=O)[nH]c(=O)c2c1ncn2Cc1ccccc1`: the TGI is > 100 µM.
The same measure, in the same setting: the same measure for `O=c1[nH]n(Cc2ccccn2)c2ccc([N+](=O)[O-])cc12`: > 100 µM.
Turning to `CCN1C(=O)N(c2ccccc2)C2NN=c3s/c(=C4\C(=O)N(C(C)C)c5ccccc54)c(=O)n3C21` (stereo not drawn), the GI50 is 3.01 µM and the TGI is > 100 µM.
With `CCCCCCCN1C(=O)C(O)(c2ccc(C3(O)C(=O)N(CCCCCCC)c4ccccc43)s2)c2ccccc21` (stereo not drawn), the TGI stood at 5.6 µM.
The same measure, in the same setting: the same measure for `CCCCS(=O)(=O)Nc1ccc(Nc2c3ccccc3nc3ccccc23)c(OC)c1`: 24 µM.
Still for that read-out and setting: the same measure for `NNc1[nH]c(=S)[nH]c1C(N)=O`: > 100 µM; for `N#CC(Cc1ccccc1Br)N(CCC1=CCCCC1)C(c1ccccc1)c1ccccc1` (stereo not drawn): > 100 µM.
Take `O=C(OCc1ccc2c(Cl)cc(Cl)c(O)c2n1)c1cc2ccccc2[nH]1`: the GI50 is 1.66 µM and the TGI came out at 3.13 µM.
Regarding `O=c1cc(-c2ccccc2)oc2cc(OCCSCCCCCCCCCCSCCOc3ccc4c(=O)cc(-c5ccccc5)oc4c3)ccc12`, the TGI was > 100 µM.
Same read-out and setting: the same measure for `Cc1cc(C)c(S(=O)(=O)ONC(=O)OC(C)(C)C)c(C)c1`: > 100 µM.
Still for that read-out and setting: the same measure for `Cc1ccc(S(=O)(=O)N2CCCC2C(=O)O[C@H]2CC[C@H]3CC=C[C@H]32)cc1` (stereo partly drawn): > 100 µM; for `COc1ccc(/C(=N/NC(N)=O)C(c2ccc(OC)cc2)C2C(=O)Oc3ccccc32)cc1` (stereo not drawn): > 100 µM.
With `COc1cccc(C2C3=C(COC3=O)Oc3cc4c(cc32)OCO4)c1` (stereo not drawn), the TGI was > 100 µM.
On the same count and under the same terms, the same measure for `O=C(NC(Nc1ccc(F)c(Cl)c1)(C(F)(F)F)C(F)(F)F)OCc1ccccc1`: > 100 µM.
Still for that read-out and setting: the same measure for `COC(OC)[C@@H](C)[C@H](O)[C@](C)(O)C1OC(C)(C)OC(C(C)C=C(C)C)C1C` (stereo partly drawn): > 100 µM.
For `CCOC(=O)C1=C(C)N(NC(N)=O)C2(O)CCCC(=O)C12C` (stereo not drawn), the TGI is > 100 µM.
Still for that read-out and setting: the same measure for `O=C1NC(N2CCCC(CO)C2)=N/C1=C\c1ccc(Cl)cc1` (stereo not drawn): > 100 µM; for `O=C(NCCCCCCCCNC(=O)c1cccc2ccccc12)c1cccc2ccccc12`: > 100 µM.
On the same count and under the same terms, the same measure for `COC12CC(=O)C(C(C)=O)=C(O)C1(C)c1c(OC(C)=O)c(C)c(O)c(C(C)=O)c1O2` (stereo not drawn): > 100 µM; for `CCc1c(Cc2cc(C)cc(C)c2)n2c(nc1=O)SCC2CBr` (stereo not drawn): > 50 µM.
As to `O=C(O)c1ccc2c(c1)nc(Nc1cccc(Cl)c1)c1ccncc12`, the GI50 was 1.31 µM and 2.1 µM; the TGI is 15.9 µM and > 10 µM.
As for `Cc1nc2n(c(=O)c1CCN1CCC(c3noc4cc(F)ccc34)CC1)CCCC2`, the GI50 was > 50 µM and the TGI is > 50 µM.
As for `CC1=C(c2cc(C(=O)Nc3cccc(C(F)(F)F)c3)ncn2)Sc2ccccc2N1`, the total growth inhibition concentration (TGI) was > 100 µM.
The same measure, in the same setting: the same measure for `O=C(O)c1oc(C(=O)O)c(C(=O)O)c1C(=O)O`: > 100 µM.
Take `Cc1c(NC(=O)OC[C@@H]2COCCN2)cn2ncnc(Nc3ccc4c(cnn4Cc4cccc(F)c4)c3)c12`: the GI50 is 0.63 µM and 0.404 µM; the TGI is > 10 µM and 15.5 µM.
In the case of `Cc1cn(C2CC(N)C(C(=O)O)O2)c(=O)[nH]c1=O` (stereo not drawn), the TGI was > 100 µM.
